# Data published in the supplement of paper PMC8728848.
# Some of the results follow.
# B1: Cohesin-marm-DC-ASGPR (protein)
# chain: LDITSHHHHHHDDLDAVRIKVDTVNAKPGDTVRIPVRFSGIPSKGIANCDFVYSYDPNVLEIIEIEPGDIIVDPNPDKSFDTAVYPDRKIIVFLFAEDSGTGAYAITKDGVFATIVAKVKEGAPNGLSVIKFVEVGGFANNDLVEQKTQFFDGGVNVGDTTEPATPTTPVTTPTTTDDLDAASSKFQRDLVTLRTDFSNFTSNTLAEIQALTSQGSSLQETIASLKAEVEGHKQELQAGASELQEHNKQKAHLGRCPHTCVCPSSFVCVPVHSEILLRVQQLVQDLNKLSCQVAILKNNATTERTCCPINWVEHQGSCYWFSRSGKTWPEAERYCQLENTHLVVINSREEQNFVQAHLGSAYTWMGLSDPEGVWKWVDGTDYSSGFQNWKPGQPDDWQGHGLGGGEDCAHFHPDGRWNDDVCQRSYHWVCEAGLTQASQDSHAS
# Columns and labels:
# Test in all cases: glycan array binding signal (z-score within array); higher = stronger binding
# Settings in all cases: glycan notation: IUPAC condensed, linker removed
# Gal3S(b1-4)Glc = target: Gal3S(b1-4)Glc
# In short: (§1)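 Columns mapping to the same glycan were averaged after glycan names were converted to IUPAC-condensed notation. The data come from 3228 arrays in the Consortium for Functional Glycomics database, limited to those with an available protein sequence. Binding is reported as a within-array Z-score averaged across arrays of one protein sequence and across linkers.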
# Gal3S(b1-4)Glc6S = target: Gal3S(b1-4)Glc6S
# In short: as §1
# Gal3S(b1-4)GlcNAc = target: Gal3S(b1-4)GlcNAc
# In short: as §1
# [1] = target: Gal3S(b1-4)[Fuc(a1-3)]Glc6S
# In short: as §1
# [2] = target: Gal3S(b1-4)[Fuc(a1-3)]GlcNAc
# In short: as §1
# [3] = target: Gal3S(b1-4)[Fuc(a1-3)]GlcNAc6S
# In short: as §1
# Gal3S4S(b1-4)GlcNAc = target: Gal3S4S(b1-4)GlcNAc
# In short: as §1
# Gal3S6S(b1-4)GlcNAc = target: Gal3S6S(b1-4)GlcNAc
# In short: as §1
# Gal3S6S(b1-4)GlcNAc6S = target: Gal3S6S(b1-4)GlcNAc6S
# In short: as §1
# Gal4S(b1-4)GlcNAc = target: Gal4S(b1-4)GlcNAc
# In short: as §1
# Gal4S6S(b1-4)GlcNAc = target: Gal4S6S(b1-4)GlcNAc
# In short: as §1
# Gal6P(b1-4)GlcNAc = target: Gal6P(b1-4)GlcNAc
# In short: as §1
# Gal6S(b1-3)GlcNAc = target: Gal6S(b1-3)GlcNAc
# In short: as §1
# Gal6S(b1-3)GlcNAc6S = target: Gal6S(b1-3)GlcNAc6S
# In short: as §1
# Gal6S(b1-4)Glc = target: Gal6S(b1-4)Glc
# In short: as §1
# Gal6S(b1-4)Glc6S = target: Gal6S(b1-4)Glc6S
# In short: as §1
# Gal6S(b1-4)GlcNAc = target: Gal6S(b1-4)GlcNAc
# In short: as §1
# Gal6S(b1-4)GlcNAc6S = target: Gal6S(b1-4)GlcNAc6S
# In short: as §1
# GalNAc(a1-3)Gal = target: GalNAc(a1-3)Gal
# In short: as §1
# GalNAc(a1-3)GalNAc = target: GalNAc(a1-3)GalNAc
# In short: as §1
# [4] = target: GalNAc(a1-3)GalNAc(b1-3)Gal(a1-4)Gal(b1-4)Glc
# In short: as §1
# [5] = target: GalNAc(a1-3)GalNAc(b1-3)Gal(a1-4)Gal(b1-4)GlcNAc
# In short: as §1
# GalNAc(b1-3)Gal = target: GalNAc(b1-3)Gal
# In short: as §1
# [6] = target: GalNAc(b1-3)Gal(a1-4)Gal(b1-4)GlcNAc
# In short: as §1
# [7] = target: GalNAc(b1-3)Gal(a1-4)Gal(b1-4)GlcNAc(b1-3)Gal(b1-4)Glc
# In short: as §1
# [8] = target: GalNAc(b1-3)Gal(a1-6)Gal(b1-4)Glc
# In short: as §1
# GalNAc(b1-3)GalNAc = target: GalNAc(b1-3)GalNAc
# In short: as §1
# GalNAc(b1-3)GlcNAc = target: GalNAc(b1-3)GlcNAc
# In short: as §1
# GalNAc(b1-4)Gal(b1-4)Glc = target: GalNAc(b1-4)Gal(b1-4)Glc
# In short: as §1
# GalNAc(b1-4)GlcNAc = target: GalNAc(b1-4)GlcNAc
# In short: as §1
# [9] = target: GalNAc(b1-4)GlcNAc(b1-2)Man
# In short: as §1
# [10] = target: GalNAc(b1-4)GlcNAc(b1-2)Man(a1-3)[GalNAc(b1-4)GlcNAc(b1-2)Man(a1-6)]Man(b1-4)GlcNAc(b1-4)GlcNAc
# In short: as §1
# [11] = target: GalNAc(b1-4)GlcNAc(b1-3)GalNAc(b1-4)GlcNAc
# In short: as §1
# GalNAc(b1-4)GlcNAc6S = target: GalNAc(b1-4)GlcNAc6S
# In short: as §1
# GalNAc(b1-6)GalNAc = target: GalNAc(b1-6)GalNAc
# In short: as §1
# GalNAc3S(b1-4)GlcNAc = target: GalNAc3S(b1-4)GlcNAc
# In short: as §1
# GalNAc3S(b1-4)GlcNAc3S = target: GalNAc3S(b1-4)GlcNAc3S
# In short: as §1
binder,measurement,setting,value
B1,glycan array binding signal (z-score),Gal3S(b1-4)Glc,0.115
same,glycan array binding signal (z-score),Gal3S(b1-4)Glc6S,-0.141
same,glycan array binding signal (z-score),Gal3S(b1-4)GlcNAc,-0.199
same,glycan array binding signal (z-score),[1],-0.3
same,glycan array binding signal (z-score),[2],-0.294
same,glycan array binding signal (z-score),[3],-0.015
same,glycan array binding signal (z-score),Gal3S4S(b1-4)GlcNAc,-0.274
same,glycan array binding signal (z-score),Gal3S6S(b1-4)GlcNAc,-0.25
same,glycan array binding signal (z-score),Gal3S6S(b1-4)GlcNAc6S,-0.283
same,glycan array binding signal (z-score),Gal4S(b1-4)GlcNAc,-0.3
same,glycan array binding signal (z-score),Gal4S6S(b1-4)GlcNAc,-0.27
same,glycan array binding signal (z-score),Gal6P(b1-4)GlcNAc,-0.307
same,glycan array binding signal (z-score),Gal6S(b1-3)GlcNAc,-0.31
same,glycan array binding signal (z-score),Gal6S(b1-3)GlcNAc6S,-0.246
same,glycan array binding signal (z-score),Gal6S(b1-4)Glc,-0.282
same,glycan array binding signal (z-score),Gal6S(b1-4)Glc6S,-0.255
same,glycan array binding signal (z-score),Gal6S(b1-4)GlcNAc,-0.311
same,glycan array binding signal (z-score),Gal6S(b1-4)GlcNAc6S,-0.295
same,glycan array binding signal (z-score),GalNAc(a1-3)Gal,4.28
same,glycan array binding signal (z-score),GalNAc(a1-3)GalNAc,-0.266
same,glycan array binding signal (z-score),[4],-0.239
same,glycan array binding signal (z-score),[5],-0.154
same,glycan array binding signal (z-score),GalNAc(b1-3)Gal,4.04
same,glycan array binding signal (z-score),[6],4.11
same,glycan array binding signal (z-score),[7],4.05
same,glycan array binding signal (z-score),[8],2.39
same,glycan array binding signal (z-score),GalNAc(b1-3)GalNAc,-0.307
same,glycan array binding signal (z-score),GalNAc(b1-3)GlcNAc,3.78
same,glycan array binding signal (z-score),GalNAc(b1-4)Gal(b1-4)Glc,-0.227
same,glycan array binding signal (z-score),GalNAc(b1-4)GlcNAc,4.21
same,glycan array binding signal (z-score),[9],4.13
same,glycan array binding signal (z-score),[10],0.719
same,glycan array binding signal (z-score),[11],3.9
same,glycan array binding signal (z-score),GalNAc(b1-4)GlcNAc6S,4.56
same,glycan array binding signal (z-score),GalNAc(b1-6)GalNAc,-0.303
same,glycan array binding signal (z-score),GalNAc3S(b1-4)GlcNAc,-0.303
same,glycan array binding signal (z-score),GalNAc3S(b1-4)GlcNAc3S,-0.258
